Results reported in PubChem BioAssay AID1460 (National Center for Advancing Translational Sciences (NCATS), 2008).
Hit rate of the full screen: of about 270,000 compounds, about 5,800 (2.1%) were called active. This list was built around the results that the source calls inconclusive (neither active nor inactive); the mix of calls is not that of the screen. Calls follow the shape of the dose curve; as a rule, active = well fitted inhibition curve with a large enough effect; inconclusive = small, poorly fitted or top-dose-only effect; inactive = flat fitted curve, though single readings scatter. A potency beside an inconclusive call is a rough fit, not a confirmed value.

Each molecule was assayed against Microtubule-associated protein tau (Homo sapiens) (UniProt P10636) (assay: qHTS for Inhibitors of Tau Fibril Formation, Thioflavin T Binding). Details: recombinant tau K18 P301L, heparin-induced fibrillization, ThT fluorescence; series mostly up to 57.4 µM; activity, negative = inhibition: at the top concentration.
Sequence of UniProt P10636 (P10636 whole entry, looked up): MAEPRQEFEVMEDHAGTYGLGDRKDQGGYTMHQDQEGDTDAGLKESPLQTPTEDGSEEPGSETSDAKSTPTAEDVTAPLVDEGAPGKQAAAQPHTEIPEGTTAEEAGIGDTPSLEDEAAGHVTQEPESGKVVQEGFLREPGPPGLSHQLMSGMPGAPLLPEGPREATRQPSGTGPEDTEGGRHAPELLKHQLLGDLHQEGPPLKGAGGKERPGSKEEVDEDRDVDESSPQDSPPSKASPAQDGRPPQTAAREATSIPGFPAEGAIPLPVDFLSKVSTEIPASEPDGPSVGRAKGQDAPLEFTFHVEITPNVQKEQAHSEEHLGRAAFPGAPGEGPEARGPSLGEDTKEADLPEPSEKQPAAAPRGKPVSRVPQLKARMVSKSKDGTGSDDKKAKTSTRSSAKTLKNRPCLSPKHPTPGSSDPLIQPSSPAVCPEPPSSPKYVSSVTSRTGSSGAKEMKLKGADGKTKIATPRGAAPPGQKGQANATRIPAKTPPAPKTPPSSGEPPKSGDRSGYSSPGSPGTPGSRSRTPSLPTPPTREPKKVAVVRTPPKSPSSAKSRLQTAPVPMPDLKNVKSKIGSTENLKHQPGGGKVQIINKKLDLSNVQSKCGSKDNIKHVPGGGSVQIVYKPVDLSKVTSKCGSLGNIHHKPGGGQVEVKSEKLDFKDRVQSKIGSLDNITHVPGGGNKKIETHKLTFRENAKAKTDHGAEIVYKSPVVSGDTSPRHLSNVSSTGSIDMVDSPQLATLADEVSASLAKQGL
Outline: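 Fibril formation assay: tau K18 P301L at 15 uM with trace Alexa 594 label, heparin inducer 20 uM, pH 7 sodium acetate buffer, 37 C for 6 hr; endpoint ThT signal.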
% is scaled to controls: 0 for no effect and ±100 for the full control effect; potency is read from the fitted curve at half-maximal effect; tags tell the direction and shape of the fitted curve.
Also: nearly all actives have a fitted effect of over 55% in size.

Compound | activity, negative = inhibition | Potency
COC(=O)c1ccc(C(NC(=O)OCc2ccccc2)/C(C)=C/[C@@H](C)C(=O)NCCc2c[nH]c3ccc(OC)cc23)cc1 (some centres undefined) | inactive: -19.9% | 
Cc1noc(C)c1S(=O)(=O)N1CCC2(CC1)OCCO2 | inactive: 8.34% | 
O=c1oc2cc(O)ccc2c2oc3cc(O)ccc3c12 |  | inconclusive: 14.1 µM [inhibitor, partial curve]
O=C(CN(CCc1ccccc1)C(=O)CNS(=O)(=O)c1ccccc1)NCc1ccco1 | inactive: 6.83% | 
COC(=O)c1ccc(C23CC2(C(NP(=O)(c2ccccc2)c2ccccc2)c2ccccc2)C3)cc1 (centres undefined) |  | inconclusive: 39.8 µM [inhibitor, single point]
CC1(C(=O)NC2CCCCC2)Cc2ccccc2C(=O)N1Cc1ccccc1Cl (centres undefined) | inactive: -9.31% | 
COc1cc(NC(=O)CCc2nc3cccnc3n2Cc2cccs2)cc(OC)c1OC |  | inconclusive: 15.8 µM [inhibitor, partial curve]
Cc1cc(S(=O)(=O)N2CCN(c3c(C)cccc3C)CC2)ccc1F |  | inconclusive: 39.8 µM [inhibitor, single point]
CCc1ccc(OCc2nc(-c3ccc(OC)c(OC)c3)no2)c(Br)c1 |  | inconclusive: 3.55 µM [inhibitor, full curve]
CCCNC(=O)c1nc(C)n(-c2cc(Cl)cc(Cl)c2)n1 | inactive: -5.32% | 
Cc1ccc(OCC(=O)c2cc(C)c(C)cc2C)c([N+](=O)[O-])n1 |  | active: 15.8 µM
O=C(NCCNc1ccc([N+](=O)[O-])cc1C(F)(F)F)c1ccccc1 |  | inconclusive: 17.8 µM [inhibitor, partial curve]
CCc1ccccc1N(C)C(=O)c1cn(-c2cccc(OC)c2)c(=O)c2ccccc12 | inactive: -5.55% | 
Cc1ccc(Cl)cc1N1CCN(CC(=O)NC2CCCc3ccccc32)CC1 (centres undefined) | inactive: 7.3% | 
COc1ccccc1N/N=C1\COC(C)(C)CC1=O |  | inconclusive: 39.8 µM [inhibitor, single point]
C/C(=C\C(=O)c1ncc(C(F)(F)F)cc1Cl)N(C)C |  | inconclusive: 25.1 µM [inhibitor, partial curve]
Cc1ccc(CNC(=O)CCS(=O)(=O)c2ccc(Br)s2)o1 | inactive: -4.21% | 
S=c1[nH]cc(-c2ccc(Cl)cc2)n1-c1ccccc1 |  | inconclusive: 28.2 µM [inhibitor, single point]
Cc1cn2c(=O)cc(COc3ccc(NC(=O)c4ccccc4C)cc3)nc2s1 |  | inconclusive: 0.891 µM [inhibitor, full curve]
O=C(O)c1ccc(/C=N/NC(=S)NCCN2CCOCC2)cc1 | inactive: -13.7% | 
COc1ccc(C)cc1NC(=O)CSc1nnc(COc2ccccc2)n1Cc1ccco1 |  | inconclusive: 28.2 µM [inhibitor, single point]
COCc1c(C(=O)OCC(=O)c2c(N)n(CC(C)C)c(=O)n(C)c2=O)oc2ccccc12 |  | inconclusive: 28.2 µM [inhibitor, single point]
O=C1Nc2cc3c(cc2C1=O)sc1ccccc13 |  | active: 1.12 µM
COc1ccc(-c2nc3c(-c4ccc(F)cc4)cnn3cc2C)cc1F |  | inconclusive: 7.08 µM [inhibitor, partial curve]
CC1CCC(C(C)C)C(OC(=O)Cn2c(-c3ccc(Br)cc3)[n+](C)c3ccccc32)C1 (centres undefined) |  | inconclusive: 20 µM [inhibitor, single point]

Compound | activity, negative = inhibition | Potency
CNC(=S)Nc1ccc(Nc2ccccc2)cc1 |  | inconclusive: 20 µM [inhibitor, single point]
COc1cc(-c2noc(-c3ccc(NCc4ccco4)c([N+](=O)[O-])c3)n2)cc(OC)c1OC | inactive: 6.41% | 
Cc1ccc(-n2ncc(C(=O)Nc3ccc4c(c3)OCO4)c2C2CCN(C(=O)OC(C)(C)C)CC2)c(C)c1 |  | inconclusive: 15.8 µM [inhibitor, partial curve]
CCc1ccccc1NC(=O)N[C@H](C(=O)O)C(C)CC (some centres undefined) | inactive: -8.45% | 
Cc1ccc2c(c1)N(C(=O)C1CCN(S(=O)(=O)c3c(C)noc3/C=C/c3ccccc3F)CC1)CCO2 | inactive: 0.949% | 
CCN1CCN(C(=O)Nc2ccccc2OC)CC1 | inactive: 0.965% | 
Cc1cc(C)c(NC(=O)Cn2ccn(-c3cccc(Cl)c3)c(=O)c2=O)c(C)c1 | inactive: -14.6% | 
COc1ccccc1NC(=O)OCC#CCOC(=O)Nc1ccccc1OC | inactive: -11.3% | 
COc1ccc(N(C(=O)c2cccc(C)c2)S(=O)(=O)c2ccc(C)cc2)cc1 | inactive: -8.27% | 
O=C(Nc1nnc(S(=O)(=O)N2CCCc3ccccc32)s1)c1cccc(F)c1 |  | inconclusive: 17.8 µM [inhibitor, partial curve]
Cc1c(N=Nc2ccc(N(C)C)cc2)c(=O)n(-c2ccccc2)n1C |  | active: 15.8 µM
CCc1ccc(C(=O)NC(=S)Nc2ccc3c(c2)OCCO3)cc1 |  | inconclusive: 10 µM [inhibitor, partial curve]
CC(C)(C)c1ccc(S(=O)(=O)c2cn(CC(=O)Nc3ccccc3)c3ccccc3c2=O)cc1 | inactive: 6.39% | 
Cc1sc2c(c1C)c(=O)nc1n2Cc2ccccc2-1 |  | inconclusive: 2.51 µM [inhibitor, full curve]
Cc1ccccc1-n1c(C)cc(/C=N/Nc2ccc([N+](=O)[O-])cn2)c1C |  | active: 4.47 µM
CO[C@H]1COC(=O)C/C=C\[C@H](C)COC(=O)[C@@H](C)NC(=O)C/C=C\[C@@H]1C | inactive: -10.2% [at 11.5 µM] | 
COc1ccc2nc(NC(=O)CCN3C(=O)c4ccccc4C3=O)sc2c1 |  | inconclusive: 17.8 µM [inhibitor, partial curve]
O=C(Cn1cnc2c(oc3ccccc32)c1=O)Nc1ccc(OC(F)(F)F)cc1 | inactive: 5.46% | 
Cc1cc(NC(=O)CN2CC(C)OC(C)C2)n(-c2nc3ccccc3s2)n1 (centres undefined) | inactive: -0.0486% | 
Cc1[nH]n(-c2ccccc2)c(=O)c1/C=N/NC(=O)c1ccoc1C |  | inconclusive: 12.6 µM [inhibitor, partial curve]
O=C(O)CCSc1nnc(COc2cccc3ccccc23)n1-c1cccc(Cl)c1 | inactive: 1.59% | 
O=C(c1ccc(Cl)cc1)N1CCN(c2ccnc3cc(Cl)ccc23)CC1 |  | inconclusive: 15.8 µM [inhibitor, partial curve]
COc1cc2[nH]c(=O)n(Cc3ccc(C(=O)N4CCN(c5cc(Cl)ccc5C)CC4)cc3)c(=O)c2cc1OC | inactive: -10.1% | 
COc1ccc(N(Cc2cccs2)C(=O)c2ccc(C(C)(C)C)cc2)cc1 |  | inconclusive: 14.1 µM [inhibitor, single point]
CCc1c(C)[nH]n(-c2ccc(Oc3ccccc3)c(S(=O)(=O)O)c2)c1=O |  | inconclusive: 12.6 µM [inhibitor, partial curve]

Compound | activity, negative = inhibition | Potency
COc1ccc(NC(=O)c2cc(S(=O)(=O)N3CCCCCC3)cn2C)cc1Cl | inactive: 10.7% | 
CN1/C(=C/C=C(C#N)C#N)C(C)(C)c2ccccc21 |  | inconclusive: 20 µM [activator, partial curve]
Clc1ccc(N2CCN(c3ncnc4c3cnn4-c3ccccc3)CC2)cc1Cl |  | inconclusive: 2 µM [inhibitor, partial curve]
Cn1c(=O)c2c(nc(NN=C3CCCCC3)n2C)n(C)c1=O |  | inconclusive: 10 µM [inhibitor, partial curve]
COc1cccc(-c2nnc(-c3ccc(C)o3)o2)c1 |  | inconclusive: 35.5 µM [inhibitor, single point]
COc1ccc(/C=N/NC(=O)c2ccco2)cc1OCc1ccccc1 |  | inconclusive: 35.5 µM [inhibitor, partial curve, poor fit]
CCc1ccccc1NC(=O)Nc1nnc(N(C)Cc2ccccc2)s1 | inactive: -4.85% | 
COc1cc(C2Nc3ccc4ncccc4c3C3=C2C(=O)CCC3)cc(OC)c1OC (centres undefined) |  | inconclusive: 28.2 µM [inhibitor, single point]
Cc1ccc(C(=O)NCCNC(=O)c2ccccc2)cc1 | inactive: -12.8% | 
CCOC(=O)c1cc(C(C)=O)c(=O)[nH]c1C | inactive: -2.49% | 
COc1ccc(/C=C/C(=O)Nc2nc3n(n2)C(c2ccccc2)C=C(c2ccc(Cl)cc2)N3)cc1 (centres undefined) |  | inconclusive: 0.178 µM [inhibitor, full curve, poor fit]
Cc1nc(Cl)c(C(=O)NC(C)(C)C)c(C)c1Cl | inactive: -4.02% | 
COc1ccc(OC)c(CNC(=O)Cn2nc(C)c3nn(-c4ccc(Cl)cc4)c(C)c3c2=O)c1 |  | inconclusive: 22.4 µM [activator, partial curve, poor fit]
CC1CCCc2sc3nc(NCc4ccco4)n4ncnc4c3c21 (centres undefined) |  | inconclusive: 25.1 µM [inhibitor, partial curve]
COc1ccc2oc(=O)c(-c3cn4c(n3)sc3cc(OC)ccc34)cc2c1 |  | inconclusive: 2 µM [inhibitor, full curve]
CN(C)c1ccc(N=Cc2ccco2)cc1 |  | inconclusive: 2.82 µM [inhibitor, partial curve]
CC(=O)Nc1ccc(/C(C)=N/NC(=O)c2ccccc2Cl)cc1 |  | inconclusive: 22.4 µM [inhibitor, partial curve]
Cn1c(N)c(-c2nc3cccnc3n2C)sc1=S |  | inconclusive: 5.62 µM [inhibitor, partial curve]
Cc1cc(N2CCN(C)CC2)nc2ccc(NC(=O)c3cccnc3Cl)cc12 |  | inconclusive: 15.8 µM [inhibitor, partial curve]
CCc1nnc(NS(=O)(=O)c2ccc(NC(=S)NC(=O)/C=C/c3ccc(OC)cc3)cc2)s1 | inactive: -0.928% | 
CCCCCCCN1C2=NCCCN2c2ccccc21 | inactive: -4.42% | 
COc1ccc(CCNC(=O)c2nc3ncccn3n2)cc1OC | inactive: 0.538% | 
O=C(NCc1ccccc1)c1nn(-c2ccccc2)nc1CO | inactive: 0.663% | 
Cc1ccc(N2C(=O)CCSC23C(=O)N(Cc2ccccc2)c2ccccc23)cc1F (centres undefined) |  | inconclusive: 22.4 µM [inhibitor, partial curve]
